Measured values from the supplement of paper PMC3334620.
In all, about 33,000 sequences were measured (“E-score (-0.5 to 0.5)”: median about -0.041, highest 2% from about 0.37 on). This is one part of the list.

molecular target: T1, Ecm22 (UniProt Q05958); experiment: PBM E-score (8-mer binding enrichment) (E-score (-0.5 to 0.5)); higher = stronger / more preferred TF binding; most listed sequences are background and not binding sites; details: protein concentration: 200 nM; construct: GST-full length
T1 sequence: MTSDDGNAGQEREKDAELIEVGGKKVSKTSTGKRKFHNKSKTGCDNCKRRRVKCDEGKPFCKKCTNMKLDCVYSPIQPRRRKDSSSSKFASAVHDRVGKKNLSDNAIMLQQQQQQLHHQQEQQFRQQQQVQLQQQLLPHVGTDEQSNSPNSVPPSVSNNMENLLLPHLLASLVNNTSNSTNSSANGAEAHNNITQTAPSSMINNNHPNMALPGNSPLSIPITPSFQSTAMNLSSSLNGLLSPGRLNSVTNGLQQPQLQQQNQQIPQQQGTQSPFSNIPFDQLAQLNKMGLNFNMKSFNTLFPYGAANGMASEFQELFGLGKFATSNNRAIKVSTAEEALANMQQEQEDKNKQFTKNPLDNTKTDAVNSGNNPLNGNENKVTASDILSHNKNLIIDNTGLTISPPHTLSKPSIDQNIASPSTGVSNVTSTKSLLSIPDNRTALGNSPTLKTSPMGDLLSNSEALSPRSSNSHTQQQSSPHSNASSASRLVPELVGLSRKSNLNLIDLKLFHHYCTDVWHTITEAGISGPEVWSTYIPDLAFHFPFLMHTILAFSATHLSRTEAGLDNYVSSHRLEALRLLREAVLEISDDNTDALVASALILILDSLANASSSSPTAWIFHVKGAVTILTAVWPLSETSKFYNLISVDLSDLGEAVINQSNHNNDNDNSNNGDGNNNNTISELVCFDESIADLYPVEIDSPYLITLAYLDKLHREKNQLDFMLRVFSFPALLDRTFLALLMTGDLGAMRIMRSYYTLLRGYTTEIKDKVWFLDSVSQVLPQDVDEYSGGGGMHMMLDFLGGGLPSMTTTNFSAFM
Procedure, shortened: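 PURExpress in vitro transcription/translation supplied GST-tagged yeast transcription factors, either full-length or DNA-binding domain. Applied at about 100-200 nM to universal all-10-mer Agilent arrays double-stranded by primer extension, the bound protein was detected with fluorescent anti-GST. E-scores, modified Wilcoxon-Mann-Whitney statistics, were given by the Universal PBM Analysis Suite to ungapped eight-base words pooled with their reverse complements after masliner normalisation.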

Row | Sequence | PBM E-score
1 | ACAGCATG | 0.00203
2 | AATAGCCT | -0.138
3 | AGGATATA | -0.0186
4 | GCTTTAGA | -0.098
5 | CCAGTGTA | 0.00327
6 | AACTAATT | 0.00402
7 | CGTCGTTA | 0.374
8 | GCTTTCTA | -0.117
9 | CACACAAG | -0.183
10 | GGCGACCA | -0.221
11 | GTAGAACA | -0.125
12 | GGCTGTTA | -0.167
13 | AAAACTGG | -0.231
14 | ACCTCGCC | 0.0126
15 | ACAGCACT | -0.0402
16 | CGAAGCAC | 0.0797
17 | TATACATA | 0.0372
18 | CGGGACAC | -0.0319
19 | CAATGTTA | -0.156
20 | AAAATAGC | -0.235
21 | ACTTTTTC | -0.0033
22 | CAGCCTCA | -0.00094
23 | CGTGTTGC | 0.111
24 | CGATCGCG | 0.235
25 | AGTAACTG | -0.0945

Row | Sequence | PBM E-score
26 | ACGGACAA | 0.0269
27 | AGCAAACT | 0.0923
28 | CAAGGGGC | -0.346
29 | AAGACGCG | -0.012
30 | ACACAATG | -0.00693
31 | TAATGACA | 0.195
32 | ACATCCGA | 0.125
33 | CGGTTCTC | 0.0952
34 | CCGCTACG | 0.339
35 | ACCTGTTG | -0.071
36 | GAGGCACC | -0.207
37 | ACGACTTC | 0.297
38 | ATATTCAC | -0.0641
39 | GGCGTACA | 0.16
40 | CCACGTCC | -0.274
41 | CACTTATC | 0.0583
42 | ACTGGTAG | -0.235
43 | CAATTTAA | -0.0586
44 | CTGGGCAA | -0.15
45 | GACCTGGC | -0.3
46 | GGGATAGA | -0.175
47 | GATGTGCC | -0.139
48 | AACATGGA | -0.242
49 | AAGAAGAC | -0.0845
50 | CCCGATCA | 0.197

Row | Sequence | PBM E-score
51 | AACCCACA | 0.0295
52 | CAGAATTC | -0.0961
53 | GGACCGAC | 0.302
54 | CACAGTGG | -0.0782
55 | AGATAGCC | -0.113
56 | ATCTTCTG | -0.0378
57 | CGCAGACC | -0.029
58 | CCCGACGC | -0.113
59 | AGTAACGG | 0.0561
60 | CGGCCCTC | -0.162
61 | GGGATCAC | -0.169
62 | AGGAGTAT | -0.109
63 | CCGATAGC | -0.0452
64 | GGGTGTGA | -0.313
65 | CCTCCGCA | -0.15
66 | CATCCATA | -0.0474
67 | CACAGGAA | -0.0965
68 | GCATTGAC | -0.0873
69 | ACAATCGG | -0.0544
70 | TACCCATA | 0.0395
71 | GCTAGCAC | -0.238
72 | GCTCCTCC | -0.0935
73 | CACCGCAA | 0.279
74 | ATGCTGGA | -0.027
75 | AGACAAAA | -0.158

Row | Sequence | PBM E-score
76 | AAGTGACA | 0.018
77 | GCAGCGGA | 0.0861
78 | GCACTCGC | 0.0475
79 | AACACGAC | 0.133
80 | GGTGTTAC | -0.131
81 | ACTTAGCA | -0.188
82 | CCACCTCA | -0.0694
83 | AATCTCAA | 0.117
84 | GAGCTTCC | 0.115
85 | GATTTACA | -0.0488
86 | AGTTTTTG | -0.142
87 | GCACCGAC | 0.0494
88 | GAAGCTGA | -0.202
89 | CACTACGA | 0.284
90 | GGATTAGA | -0.175
91 | AGATAACG | 0.123
92 | GGCAGGAC | -0.0996
93 | GCCTCCCA | -0.166
94 | GAACGACA | 0.456
95 | ACGTTGCT | 0.196
96 | CACTGTAC | 0.00959
97 | CATAATGC | -0.0828
98 | AACCCGCG | 0.0935
99 | CTAAACAG | -0.109
100 | CCCCGACG | -0.0371

Row | Sequence | PBM E-score
101 | CGGTGACA | -0.087
102 | AACATGTG | 0.0146
103 | CATAGCAC | -0.0177
104 | CTAGACGC | -0.00042
105 | CTAAAGAG | 0.0114
106 | CTTATTTC | -0.0156
107 | ATTACTTA | 0.015
108 | CGTTACCA | 0.149
109 | CCGTACCA | 0.423
110 | GTCATAAC | -0.126
111 | CCACCGGG | -0.108
112 | CATTTAAA | 0.0151
113 | AGGCCAGA | -0.178
114 | CCGGTTTA | 0.0921
115 | AAAAGTGC | -0.0258
116 | GAATCATA | -0.0949
117 | CATCACTA | -0.116
118 | AGCAGTCC | -0.358
119 | CGCGCTGA | -0.0978
120 | GACATTCA | -0.0786
121 | ATAGATAC | 0.128
122 | TTACTGAA | 0.14
123 | GTACACGA | 0.334
124 | CCGTATGA | 0.396
125 | TCTGCTCA | -0.168

Row | Sequence | PBM E-score
126 | CAAAAGGG | -0.181
127 | GAAAAGAC | -0.0519
128 | CGCCTTAC | -0.0202
129 | CTAAGACA | -0.0386
130 | GACAAATC | -0.0608
131 | AGGCCCTG | -0.265
132 | CCGGTTTC | -0.063
133 | GAAAAAAA | 0.0711
134 | ACCATGTC | 0.107
135 | CGGTTTTA | 0.072
136 | CATTCCCC | -0.171
137 | CCTAAGCA | -0.137
138 | CTGCTATA | -0.0309
139 | GCGTGACA | -0.018
140 | GAAATGCA | -0.0453
141 | GCGCTGCC | -0.227
142 | CAATCGAG | 0.0272
143 | GACATGAC | -0.0817
144 | GGTAATTA | 0.0657
145 | CCGAATTC | 0.156
146 | ATCACGGG | -0.0941
147 | AAGCTCTA | -0.0207
148 | CGACGGCA | 0.24
149 | CGCTGGAA | -0.167
150 | GGAAGTAA | -0.0167

Row | Sequence | PBM E-score
151 | CATTTGGC | -0.217
152 | ACGCCTGA | 0.0176
153 | GTGACTTA | -0.107
154 | AAGGTAAG | -0.0527
155 | TATGCGCA | 0.0405
156 | ATGACTTC | -0.0108
157 | ACTTTCCT | -0.287
158 | CGCAAGCC | 0.0725
159 | GACGGCAA | -0.155
160 | TCATGGCA | -0.173
161 | TAACCCAA | -0.139
162 | CGTCGAGC | -0.0203
163 | AGTAAGGA | -0.124
164 | CCCAATTC | 0.0278
165 | CAATCGCG | 0.118
166 | ACGCGACC | 0.204
167 | GGCAGGGA | -0.148
168 | AAGGTTAT | 0.0139
169 | CAAAGCTG | -0.191
170 | AACCGAGT | 0.204
171 | AACTGTTA | 0.091
172 | CCTGCGTA | 0.215
